Positions count from the first letter of the chain named. Some of the results follow.
T1: RBFOX1 RRM RbFoxmut (Fox-RRM*) (Homo sapiens, UniProt Q9NWB1 109-208, R118D;E147R;N151S;E152T)
T1 sequence: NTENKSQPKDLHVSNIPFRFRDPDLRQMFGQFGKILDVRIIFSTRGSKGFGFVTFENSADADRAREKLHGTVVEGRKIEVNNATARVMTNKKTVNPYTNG

B1: UGUCAUA (DNA:RNA)
RNA: GGGAGACCGGAAUUCAGAUUGUCCUGUCAUAUUAAAUCCCGUCGUAGCCACCA
DNA 1: CAATCTGAATTCCGGTCTCCC
DNA 2: TGGTGGCTACGACGGGATT
B2: CAUUGAC (DNA:RNA)
RNA: B1 RNA with U25C, G26A, C28U, A29G, U30A, A31C
DNA 1: CAATCTGAATTCCGGTCTCCC
DNA 2: TGGTGGCTACGACGGGATT
B3: UAGUCAU (DNA:RNA)
RNA: B1 RNA with G26A, U27G, C28U, A29C, U30A, A31U
DNA 1: CAATCTGAATTCCGGTCTCCC
DNA 2: TGGTGGCTACGACGGGATT
B4: GAGACCC (DNA:RNA)
RNA: GGGAGACCGGAAUUCAGAUUGUCCGAGACCCUUAAAUCCCGUCGUAGCCACCA
DNA 1: CAATCTGAATTCCGGTCTCCC
DNA 2: TGGTGGCTACGACGGGATT
B5: UAUUGGU (DNA:RNA)
RNA: B1 RNA with G26A, C28U, A29G, U30G, A31U
DNA 1: CAATCTGAATTCCGGTCTCCC
DNA 2: TGGTGGCTACGACGGGATT
B6: UGUGGUC (DNA:RNA)
RNA: B1 RNA with C28G, A29G, A31C
DNA 1: CAATCTGAATTCCGGTCTCCC
DNA 2: TGGTGGCTACGACGGGATT
B7: ACACGGU (DNA:RNA)
RNA: B1 RNA with U25A, G26C, U27A, A29G, U30G, A31U
DNA 1: CAATCTGAATTCCGGTCTCCC
DNA 2: TGGTGGCTACGACGGGATT
B8: CAAUACC (DNA:RNA)
RNA: B4 RNA with G25C, G27A, A28U, C29A
DNA 1: CAATCTGAATTCCGGTCTCCC
DNA 2: TGGTGGCTACGACGGGATT
B9: ACAUCUC (DNA:RNA)
RNA: B4 RNA with G25A, A26C, G27A, A28U, C30U
DNA 1: CAATCTGAATTCCGGTCTCCC
DNA 2: TGGTGGCTACGACGGGATT
B10: GGCUGAA (DNA:RNA)
RNA: B1 RNA with U25G, U27C, C28U, A29G, U30A
DNA 1: CAATCTGAATTCCGGTCTCCC
DNA 2: TGGTGGCTACGACGGGATT
B11: AAAAAUG (DNA:RNA)
RNA: B4 RNA with G25A, G27A, C29A, C30U, C31G
DNA 1: CAATCTGAATTCCGGTCTCCC
DNA 2: TGGTGGCTACGACGGGATT
B12: UACCACC (DNA:RNA)
RNA: B4 RNA with G25U, G27C, A28C, C29A
DNA 1: CAATCTGAATTCCGGTCTCCC
DNA 2: TGGTGGCTACGACGGGATT
B13: UAAAUAC (DNA:RNA)
RNA: B4 RNA with G25U, G27A, C29U, C30A
DNA 1: CAATCTGAATTCCGGTCTCCC
DNA 2: TGGTGGCTACGACGGGATT
B14: UGGUUAC (DNA:RNA)
RNA: B4 RNA with G25U, A26G, A28U, C29U, C30A
DNA 1: CAATCTGAATTCCGGTCTCCC
DNA 2: TGGTGGCTACGACGGGATT
B15: UAACUGC (DNA:RNA)
RNA: B4 RNA with G25U, G27A, A28C, C29U, C30G
DNA 1: CAATCTGAATTCCGGTCTCCC
DNA 2: TGGTGGCTACGACGGGATT
B16: UCUUCAA (DNA:RNA)
RNA: B1 RNA with G26C, C28U, A29C, U30A
DNA 1: CAATCTGAATTCCGGTCTCCC
DNA 2: TGGTGGCTACGACGGGATT
B17: UGGACAG (DNA:RNA)
RNA: B4 RNA with G25U, A26G, C30A, C31G
DNA 1: CAATCTGAATTCCGGTCTCCC
DNA 2: TGGTGGCTACGACGGGATT
B18: UGAACUU (DNA:RNA)
RNA: B1 RNA with U27A, C28A, A29C, A31U
DNA 1: CAATCTGAATTCCGGTCTCCC
DNA 2: TGGTGGCTACGACGGGATT
B19: GGGGCCG (DNA:RNA)
RNA: B4 RNA with A26G, A28G, C31G
DNA 1: CAATCTGAATTCCGGTCTCCC
DNA 2: TGGTGGCTACGACGGGATT
B20: AGCUUUU (DNA:RNA)
RNA: B1 RNA with U25A, U27C, C28U, A29U, A31U
DNA 1: CAATCTGAATTCCGGTCTCCC
DNA 2: TGGTGGCTACGACGGGATT

The binders below were run against T1, RBFOX1 RRM RbFoxmut (Fox-RRM*) (assay: EMSA; HiTS-Eq, 1 nM pool, 10 min; buffer printed only for the single-RNA assays: 10 mM Tris pH 7.5, 150 mM NaCl, 3.4 mM EDTA, 0.001% NP-40, 30 C). Details: tags: His6 N-terminal (pET28a); label: 5' 32P.
Procedure, shortened: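 A pool of RNA with 7 randomized nucleotides, 5′-radiolabelled and with DNA-annealed flanks, was equilibrated at 1 nM for 10 min in 50 µL with purified RbFox RRM, wild type or mutant, across increasing protein concentrations. Free RNA was separated by 8% native PAGE, excised, reverse-transcribed, barcoded by PCR and sequenced. Relative association constants were obtained from read-count changes of each RNA species versus the control reaction and normalised to the cognate motif.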
For B1, the binding signal was 0.119 KA relative to UGCAUGU. With B2 the binding signal was 0.124 KA relative to UGCAUGU. With B3 the binding signal was 0.106 KA relative to UGCAUGU. In the case of B4, the binding signal is reported as 0.0526 KA relative to UGCAUGU. In the case of B5, the binding signal is reported as 0.125 KA relative to UGCAUGU. For B6, the binding signal was 0.184 KA relative to UGCAUGU. With B7 the binding signal was 0.0918 KA relative to UGCAUGU. In the case of B8, the binding signal is reported as 0.105 KA relative to UGCAUGU. For B9, the binding signal was 0.0994 KA relative to UGCAUGU. For B10, the binding signal was 0.114 KA relative to UGCAUGU. B11 was tested, and the binding signal was 0.0868 KA relative to UGCAUGU. For B12, the binding signal was 0.075 KA relative to UGCAUGU. B13 was tested, and the binding signal was 0.0711 KA relative to UGCAUGU. For B14, the binding signal was 0.127 KA relative to UGCAUGU. In the case of B15, the binding signal is reported as 0.0588 KA relative to UGCAUGU. For B16, the binding signal was 0.059 KA relative to UGCAUGU. With B17 the binding signal was 0.0526 KA relative to UGCAUGU. For B18, the binding signal was 0.0736 KA relative to UGCAUGU. In the case of B19, the binding signal is reported as 0.201 KA relative to UGCAUGU. With B20 the binding signal was 0.0877 KA relative to UGCAUGU.

Reference: article PMC9911399, “Two distinct binding modes provide the RNA-binding protein RbFox with extraordinary sequence specificity”
